Results: the supplement of paper PMC4967469
A lower IC50 marks a more sensitive line; fits outside the tested doses are given as limits. For AUC the same curve is integrated over the 256-fold range of doses and scaled to a fraction; it is 1 without any effect and falls as sensitivity rises. For some assays here: Any top dose called inferred was calculated from the reported fits. For some assays here: An entry number marks a drug with two screens in the source, which often give different values.

What was measured:
Assay in all cases: Viability of human cancer cell lines after 72 h of drug (GDSC screen)
MPS-1-IN-1 = compound: COc1cc(N2CCC(O)CC2)ccc1Nc1cc(Nc2ccccc2S(=O)(=O)C(C)C)c2cc[nH]c2n1 [MPS-1-IN-1]; settings: top dose 20 µM; top dose inferred
Procedure: (§1)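 Human cancer cell lines in 384-well plates, medium with 10% serum, drug for 72 h over a 256-fold dose range (nine 2-fold or five 4-fold steps up to the top dose). Adherent lines were fixed and stained with the nucleic acid dye Syto60, suspension lines read with resazurin; signal relative to control wells, capped at 0 and 100%. One two-parameter sigmoid per drug and line, fitted in a mixed model over all curves with the slope shared within a line.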

ABT-888 = compound: C[C@]1(c2nc3c(C(N)=O)cccc3[nH]2)CCCN1 [ABT-888]; settings: top dose 5 µM; top dose inferred
Procedure: as §1

Thapsigargin = compound: C/C=C(/C)C(=O)O[C@H]1C(C)=C2[C@H]([C@@H]1OC(=O)CCCCCCC)[C@@](C)(OC(C)=O)C[C@H](OC(=O)CCC)[C@@]1(O)[C@H]2OC(=O)[C@@]1(C)O [Thapsigargin]; settings: top dose 0.512 µM; top dose inferred
Procedure: as §1

Cytarabine = compound: Nc1ccn([C@@H]2O[C@H](CO)[C@@H](O)[C@@H]2O)c(=O)n1 [Cytarabine]; settings: top dose 2 µM
Procedure: as §1

Zibotentan = compound: COc1nc(C)cnc1NS(=O)(=O)c1cccnc1-c1ccc(-c2nnco2)cc1 [Zibotentan]; settings: top dose 20 µM; top dose inferred
Procedure: as §1

CP466722 = compound: COc1cc2ncnc(-n3nc(-c4ccccn4)nc3N)c2cc1OC [CP466722]; settings: top dose 16 µM; top dose inferred
Procedure: as §1

KU-55933 = compound: O=c1cc(-c2cccc3c2Sc2ccccc2S3)oc(N2CCOCC2)c1 [KU-55933]; settings: top dose 10 µM
Procedure: as §1

(5Z)-7-Oxozeaenol = compound: COc1cc(O)c2c(c1)/C=C/C[C@H](O)[C@H](O)C(=O)/C=C\C[C@H](C)OC2=O [(5Z)-7-Oxozeaenol]; settings: top dose 10 µM; top dose inferred
Procedure: as §1

CHIR-99021 = compound: Cc1cnc(-c2cnc(NCCNc3ccc(C#N)cn3)nc2-c2ccc(Cl)cc2Cl)[nH]1 [CHIR-99021]
Procedure: as §1

GSK269962A = compound: CCn1c(-c2nonc2N)nc2cnc(Oc3cccc(NC(=O)c4ccc(OCCN5CCOCC5)cc4)c3)cc21 [GSK269962A]; settings: top dose 5 µM; screen: GDSC drug entry 1192; top dose inferred
Procedure: as §1

QL-X-138 = compound: C=CC(=O)Nc1cc(-n2c(=O)ccc3cnc4ccc(-c5cn[nH]c5)cc4c32)ccc1C [QL-X-138]; settings: top dose 10.24 µM; top dose inferred
Procedure: as §1

ABT-869 = compound: Cc1ccc(F)c(NC(=O)Nc2ccc(-c3cccc4[nH]nc(N)c34)cc2)c1 [ABT-869]; settings: top dose 1.024 µM; top dose inferred
Procedure: as §1

[1] = top dose 2.56 µM, screen: GDSC drug entry 154
[2] = top dose 10 µM, screen: GDSC drug entry 1241, top dose inferred

## CAL-12T (non-small cell lung carcinoma, adherent)
MPS-1-IN-1
  AUC: 0.833
  IC50: 15 µM
ABT-888
  AUC: 0.961
  IC50: > 5 µM
Thapsigargin
  AUC: 0.11
  IC50: < 0.002 µM
Cytarabine
  AUC: 0.929
  IC50: > 2 µM
Zibotentan
  AUC: 0.98
  IC50: > 20 µM
CP466722
  AUC: 0.649
  IC50: 2.73 µM
KU-55933
  AUC: 0.893
  IC50: > 10 µM
(5Z)-7-Oxozeaenol
  AUC: 0.759
  IC50: 3.89 µM
CHIR-99021; [1]
  AUC: 0.981
  IC50: > 2.56 µM
CHIR-99021; [2]
  AUC: 0.902
  IC50: > 10 µM
GSK269962A
  AUC: 0.94
  IC50: > 5 µM
QL-X-138
  AUC: 0.58
  IC50: 1.09 µM
ABT-869
  AUC: 0.982
  IC50: > 1.02 µM

## CAL-27 (head and neck, adherent)
MPS-1-IN-1
  AUC: 0.84
  IC50: 14.2 µM
ABT-888
  AUC: 0.957
  IC50: > 5 µM
Thapsigargin
  AUC: 0.201
  IC50: 0.00409 µM
Cytarabine
  AUC: 0.832
  IC50: 1.32 µM
Zibotentan
  AUC: 0.985
  IC50: > 20 µM
CP466722
  AUC: 0.897
  IC50: > 16 µM
KU-55933
  AUC: 0.953
  IC50: > 10 µM
(5Z)-7-Oxozeaenol
  AUC: 0.553
  IC50: 0.874 µM
CHIR-99021; [1]
  AUC: 0.985
  IC50: > 2.56 µM
CHIR-99021; [2]
  AUC: 0.954
  IC50: > 10 µM
GSK269962A
  AUC: 0.837
  IC50: 3.43 µM
QL-X-138
  AUC: 0.798
  IC50: 4.98 µM
ABT-869
  AUC: 0.982
  IC50: > 1.02 µM

## CAL-29 (bladder, adherent)
MPS-1-IN-1
  AUC: 0.974
  IC50: > 20 µM
ABT-888
  AUC: 0.981
  IC50: > 5 µM
Thapsigargin
  AUC: 0.784
  IC50: 0.235 µM
Cytarabine
  AUC: 0.77
  IC50: 0.821 µM
Zibotentan
  AUC: 0.977
  IC50: > 20 µM
CP466722
  AUC: 0.865
  IC50: 15.9 µM
KU-55933
  AUC: 0.944
  IC50: > 10 µM
(5Z)-7-Oxozeaenol
  AUC: 0.524
  IC50: 0.729 µM
CHIR-99021; [1]
  AUC: 0.959
  IC50: > 2.56 µM
CHIR-99021; [2]
  AUC: 0.937
  IC50: > 10 µM
GSK269962A
  AUC: 0.828
  IC50: 3.42 µM
QL-X-138
  AUC: 0.806
  IC50: 5.69 µM
ABT-869
  AUC: 0.971
  IC50: > 1.02 µM

## CAL-39 (cervix, adherent)
MPS-1-IN-1
  AUC: 0.848
  IC50: 15.8 µM
ABT-888
  AUC: 0.979
  IC50: > 5 µM
Thapsigargin
  AUC: 0.193
  IC50: 0.00374 µM
Cytarabine
  AUC: 0.8
  IC50: 1.01 µM
Zibotentan
  AUC: 0.98
  IC50: > 20 µM
CP466722
  AUC: 0.872
  IC50: > 16 µM
KU-55933
  AUC: 0.981
  IC50: > 10 µM
(5Z)-7-Oxozeaenol
  AUC: 0.763
  IC50: 3.73 µM
CHIR-99021; [1]
  AUC: 0.986
  IC50: > 2.56 µM
CHIR-99021; [2]
  AUC: 0.971
  IC50: > 10 µM
GSK269962A
  AUC: 0.904
  IC50: > 5 µM
QL-X-138
  AUC: 0.92
  IC50: > 10.2 µM
ABT-869
  AUC: 0.983
  IC50: > 1.02 µM

## CAL-62 (thyroid, adherent)
MPS-1-IN-1
  AUC: 0.967
  IC50: > 20 µM
ABT-888
  AUC: 0.96
  IC50: > 5 µM
Thapsigargin
  AUC: 0.33
  IC50: 0.011 µM
Cytarabine
  AUC: 0.717
  IC50: 0.497 µM
Zibotentan
  AUC: 0.986
  IC50: > 20 µM
CP466722
  AUC: 0.885
  IC50: > 16 µM
KU-55933
  AUC: 0.97
  IC50: > 10 µM
(5Z)-7-Oxozeaenol
  AUC: 0.397
  IC50: 0.331 µM
CHIR-99021; [1]
  AUC: 0.981
  IC50: > 2.56 µM
CHIR-99021; [2]
  AUC: 0.946
  IC50: > 10 µM
GSK269962A
  AUC: 0.659
  IC50: 0.845 µM
QL-X-138
  AUC: 0.806
  IC50: 4.91 µM
ABT-869
  AUC: 0.986
  IC50: > 1.02 µM

## CAL-72 (osteosarcoma, adherent)
MPS-1-IN-1
  AUC: 0.984
  IC50: > 20 µM
ABT-888
  AUC: 0.982
  IC50: > 5 µM
Thapsigargin
  AUC: 0.289
  IC50: 0.0072 µM
Cytarabine
  AUC: 0.727
  IC50: 0.63 µM
Zibotentan
  AUC: 0.981
  IC50: > 20 µM
CP466722
  AUC: 0.984
  IC50: > 16 µM
KU-55933
  AUC: 0.933
  IC50: > 10 µM
(5Z)-7-Oxozeaenol
  AUC: 0.608
  IC50: 1.31 µM
CHIR-99021; [1]
  AUC: 0.877
  IC50: > 2.56 µM
CHIR-99021; [2]
  AUC: 0.895
  IC50: > 10 µM
GSK269962A
  AUC: 0.765
  IC50: 2.15 µM
QL-X-138
  AUC: 0.984
  IC50: > 10.2 µM
ABT-869
  AUC: 0.982
  IC50: > 1.02 µM

## CAL-78 (chondrosarcoma, adherent)
MPS-1-IN-1
  AUC: 0.897
  IC50: > 20 µM
ABT-888
  AUC: 0.986
  IC50: > 5 µM
Thapsigargin
  AUC: 0.976
  IC50: > 0.512 µM
Cytarabine
  AUC: 0.734
  IC50: 0.651 µM
Zibotentan
  AUC: 0.983
  IC50: > 20 µM
CP466722
  AUC: 0.986
  IC50: > 16 µM
KU-55933
  AUC: 0.982
  IC50: > 10 µM
(5Z)-7-Oxozeaenol
  AUC: 0.769
  IC50: 4.3 µM
CHIR-99021; [1]
  AUC: 0.915
  IC50: > 2.56 µM
CHIR-99021; [2]
  AUC: 0.95
  IC50: > 10 µM
GSK269962A
  AUC: 0.9
  IC50: > 5 µM
QL-X-138
  AUC: 0.981
  IC50: > 10.2 µM
ABT-869
  AUC: 0.984
  IC50: > 1.02 µM

## CAL-85-1 (breast, adherent)
MPS-1-IN-1
  AUC: 0.834
  IC50: 18.6 µM
ABT-888
  AUC: 0.976
  IC50: > 5 µM
Thapsigargin
  AUC: 0.332
  IC50: 0.00946 µM
Cytarabine
  AUC: 0.853
  IC50: > 2 µM
Zibotentan
  AUC: 0.976
  IC50: > 20 µM
CP466722
  AUC: 0.76
  IC50: 7.13 µM
KU-55933
  AUC: 0.964
  IC50: > 10 µM
(5Z)-7-Oxozeaenol
  AUC: 0.666
  IC50: 2.08 µM
CHIR-99021; [1]
  AUC: 0.873
  IC50: > 2.56 µM
CHIR-99021; [2]
  AUC: 0.951
  IC50: > 10 µM
GSK269962A
  AUC: 0.979
  IC50: > 5 µM
QL-X-138
  AUC: 0.64
  IC50: 1.75 µM
ABT-869
  AUC: 0.966
  IC50: > 1.02 µM

## CAL-120 (breast, adherent)
MPS-1-IN-1
  AUC: 0.934
  IC50: > 20 µM
ABT-888
  AUC: 0.981
  IC50: > 5 µM
Thapsigargin
  AUC: 0.511
  IC50: 0.0346 µM
Cytarabine
  AUC: 0.808
  IC50: 1.42 µM
Zibotentan
  AUC: 0.975
  IC50: > 20 µM
CP466722
  AUC: 0.791
  IC50: 9.62 µM
KU-55933
  AUC: 0.962
  IC50: > 10 µM
(5Z)-7-Oxozeaenol
  AUC: 0.574
  IC50: 1.06 µM
CHIR-99021; [1]
  AUC: 0.971
  IC50: > 2.56 µM
CHIR-99021; [2]
  AUC: 0.936
  IC50: > 10 µM
GSK269962A
  AUC: 0.677
  IC50: 1.14 µM
QL-X-138
  AUC: 0.59
  IC50: 1.21 µM
ABT-869
  AUC: 0.98
  IC50: > 1.02 µM

## CCF-STTG1 (glioma, adherent)
MPS-1-IN-1
  AUC: 0.96
  IC50: > 20 µM
ABT-888
  AUC: 0.988
  IC50: > 5 µM
Thapsigargin
  AUC: 0.435
  IC50: 0.0213 µM
Cytarabine
  AUC: 0.795
  IC50: 0.936 µM
Zibotentan
  AUC: 0.984
  IC50: > 20 µM
CP466722
  AUC: 0.987
  IC50: > 16 µM
KU-55933
  AUC: 0.984
  IC50: > 10 µM
(5Z)-7-Oxozeaenol
  AUC: 0.874
  IC50: 9.88 µM
CHIR-99021; [1]
  AUC: 0.986
  IC50: > 2.56 µM
CHIR-99021; [2]
  AUC: 0.977
  IC50: > 10 µM
GSK269962A
  AUC: 0.874
  IC50: 4.93 µM
QL-X-138
  AUC: 0.731
  IC50: 2.92 µM
ABT-869
  AUC: 0.93
  IC50: > 1.02 µM
